# Data reported in PubChem BioAssay AID902 (National Center for Advancing Translational Sciences (NCATS), 2007).
# Hit rate of the full screen: of about 130,000 compounds, about 1,900 (1.5%) were called active. The shares of active, inactive and inconclusive entries below differ from those in the screen. The call rests on the fitted dose curve; in most records, active means well fitted cell-killing curve with a large enough effect; inconclusive means small, poorly fitted or top-dose-only effect; inactive means no such curve, though single readings can be large or run the other way. Where the call is inconclusive, the potency comes from a doubtful curve fit.
# Test: qHTS Screen for Compounds that Selectively Target Cancer Cells with p53 Mutations: Cytotoxicity of p53ts Cells at the Nonpermissive Temperature; further: nearly all actives have a fitted effect of over 55% in size
# Conditions: H1299-p53A138V viability at 39C, ATP luminescence, 24 h; activity change, negative = cell killing: at 46.1 µM (top of the series)
# On the % scale 0 is the no-effect control and ±100 the full control effect; potency means the concentration at half of the fitted maximal effect; tags describe the fitted curve by direction and shape.
SMILES,Potency,"activity change, negative = cell killing"
CCCCCCCC/C=C\CCCCCCCC(=O)NCCc1ccc(O)c(O)c1,active: 12.6 µM,–
CCOC(=O)c1ccc(NC(=O)C2CC(=O)NC(=Nc3ccc(C)c(C)c3)S2)cc1 (configuration not stated),"inconclusive: 20 µM [cytotoxic, single point]",–
C=CCn1c(SCc2ccc(C(=O)Nc3nccs3)cc2)nnc1-c1ccc(C)c(Cl)c1,"inconclusive: 35.5 µM [cytotoxic, single point]",–
Cc1cccc(NC(=O)Nc2ccc(F)cc2)n1,inactive,–
COCC(=O)Nc1sc2c(c1C(=O)OC)C(C(=O)OC)CC2 (configuration not stated),inactive,–
CN(C)c1ccc(-c2nc(NCc3cccnc3)c3ccccc3n2)cc1,active: 3.98 µM,–
COc1ccc(-c2nnc(N(C)C(=O)c3cccnc3)s2)cc1,"inconclusive: 10 µM [cytotoxic, partial curve]",–
Cc1ccc(NC(=O)CCOc2ccccc2)cc1,"inconclusive: 12.6 µM [cytotoxic, partial curve]",–
COc1ccc(NC(=O)c2cccc(N3CCCS3(=O)=O)c2)cc1OC,"inconclusive: 2 µM [cytotoxic, partial curve, poor fit]",–
Cc1ccc(CNc2nc(-c3ccco3)nn2S(C)(=O)=O)cc1,"inconclusive: 6.31 µM [cytotoxic, full curve]",–
COc1ccc(NC(=O)C2COc3ccccc3C2)cc1Cl (configuration not stated),inactive,–
CCc1ccc(CNC(=O)c2c3c(nc4ccccc24)C(=O)N(C2CCCCC2)C3)cc1,"inconclusive: 12.6 µM [cytotoxic, partial curve]",–
CCCn1c(=O)c2sccc2n2c(CCCC(=O)N3CCN(c4ccccc4OC)CC3)nnc12,inactive,–
COc1cc2c(=O)c(C(=O)c3ccc(C)c(C)c3)cn(Cc3ccccc3F)c2cc1OC,inactive,–
COc1ccccc1NC(=O)CSc1nnc(-c2ccccc2C)o1,"inconclusive: 2.51 µM [cytotoxic, full curve]",–
CC1=C(C(=O)OCc2ccc(C)cc2)C(c2ccccc2F)CC(=O)N1 (configuration not stated),"inconclusive: 20 µM [cytotoxic, single point]",–
CCOC(=O)CNC(=O)CSc1ncnc2c1cnn2-c1ccc(C)cc1,inactive,–
CCc1ccc(NC(=O)Cn2c(=O)n(CCCCC(=O)NCCc3ccc(Cl)cc3)c(=O)c3ccccc32)cc1,"inconclusive: 3.98 µM [cytotoxic, single point]",–
Cc1ccc(C)c(SCC(=O)Nc2nnc(-c3ccccc3)o2)c1,"inconclusive: 12.6 µM [cytotoxic, single point]",–
CCOC(=O)c1c(NC(=O)c2nc(S(C)(=O)=O)ncc2Cl)sc(C(C)=O)c1C,–,inconclusive: -108% [cytotoxic]
CC(=O)c1ccc(NC(=O)COC(=O)c2ccccc2N=Nc2ccc(N(C)C)cc2)cc1,"inconclusive: 11.2 µM [cytotoxic, partial curve, poor fit]",–
CCCCN1C(=O)C(O)(CC(=O)c2ccc(C(C)(C)C)cc2)c2ccccc21 (configuration not stated),active: 12.6 µM,–
Cc1ccc(-c2cc(C(=O)NCc3ccccc3Cl)c3ccccc3n2)cc1C,"inconclusive: 0.0398 µM [cytotoxic, full curve, poor fit]",–

SMILES,Potency,"activity change, negative = cell killing"
Cc1ccc2c(c1)N(CCCC(=O)Nc1cccc(C(F)(F)F)c1)C(=O)CO2,"inconclusive: 31.6 µM [cytotoxic, single point]",–
N#Cc1cccc(-c2ccc3ncnc(NCc4ccccc4)c3c2)c1,inactive,–
CCOc1cc(C#N)c(NC(=O)Cn2nnc(-c3ccc(C)cc3)n2)cc1OCC,"inconclusive: 2.51 µM [cytotoxic, partial curve, poor fit]",–
CCOC(=O)C1CCCN(C(=O)c2cc(Nc3ccc(OC)c(OC)c3)nc3ccccc23)C1 (configuration not stated),"inconclusive: 12.6 µM [cytotoxic, partial curve]",–
CCC/C=C(\CCC)C(NP(=O)(c1ccccc1)c1ccccc1)c1ccc(-c2ccccc2)cc1 (configuration not stated),"inconclusive: 31.6 µM [cytotoxic, single point]",–
COc1cc(/C=C/c2ccccc2)oc(=O)c1,"inconclusive: 12.6 µM [cytotoxic, full curve]",–
CCC(Sc1nnc(C)n2c1cc1occc12)C(=O)Nc1ccccc1OC (configuration not stated),–,inconclusive: -32.3% [cytotoxic]
CC(C)Oc1cc(O)c2c(=O)c(-c3ccc(O)cc3)coc2c1,"inconclusive: 12.6 µM [cytotoxic, single point]",–
Cc1ccc(NC(=O)Cc2coc3ccc(C(C)C)cc23)cc1Cl,"inconclusive: 15.8 µM [cytotoxic, single point]",–
COc1cccc(NC(=O)Cn2c(=O)n(Cc3ccccc3)c(=O)c3ccccc32)c1,inactive,–
Cc1ccc(S(=O)(=O)N2C(=O)CCC2C(=O)NCc2ccco2)cc1 (configuration not stated),inactive,–
O=C(COC(=O)c1cccnc1Nc1ccccc1F)NCc1ccc2c(c1)OCO2,"inconclusive: 12.6 µM [cytotoxic, single point]",–
O=C(Nc1ccc2c(c1)OCO2)OCc1ccccc1,"inconclusive: 7.94 µM [cytotoxic, partial curve]",–
O=C(OCc1c(Cl)nc2sccn12)c1cc2c(s1)CCCC2,inactive,–
CCC(C)Nc1ncnc2c1cnn2-c1ccc(F)cc1 (configuration not stated),active: 7.94 µM,–
CCN(Cc1ccccc1)S(=O)(=O)c1ccc(-c2coc(C)n2)cc1,inactive,–
Fc1ccc(C2=CC(c3ccc(F)cc3)n3c(nc4ccccc43)N2)cc1 (configuration not stated),active: 12.6 µM,–
O=C(CSc1nc2ccccc2[nH]1)Nc1cc(C(F)(F)F)ccc1N1CCOCC1,"inconclusive: 31.6 µM [cytotoxic, single point]",–
Brc1ccccc1-c1nc(-c2ccccc2)no1,"inconclusive: 10 µM [cytotoxic, partial curve]",–
O=C(Nc1ccc2c(c1)OCCO2)c1ccc2nccnc2c1,active: 3.98 µM,–
OCCCN1c2ccccc2Nc2nnc(-c3ccccc3)cc21,"inconclusive: 12.6 µM [cytotoxic, partial curve]",–
CCCCCN=Cc1c(C)[nH]n(-c2nc3ccccc3s2)c1=O,active: 0.794 µM,–
NC(=O)c1c(NC(=O)CS(=O)(=O)c2ccc(Cl)cc2)sc2c1CCCCC2,"inconclusive: 31.6 µM [cytotoxic, single point]",–

SMILES,Potency,"activity change, negative = cell killing"
COc1ccc(-c2cc(C(N)=O)nc(N3CCCCCC3)n2)cc1,active: 10 µM,–
Cc1ccc(-c2nc(CS(=O)(=O)CC(=O)Nc3ccc(Br)cc3F)c(C)o2)cc1,"inconclusive: 10 µM [cytotoxic, single point]",–
O=C(NCCCN1CCN(c2cccc(Cl)c2)CC1)c1sc2ncccc2c1-n1cccc1,"inconclusive: 3.16 µM [cytotoxic, full curve, poor fit]",–
COc1cc(NC(=O)Cn2c(=O)cc(C)c3c(C)nn(-c4ccc(C)cc4)c32)cc(OC)c1,inactive,–
COc1cccc(C2Nc3ccccc3C(=O)N2O)c1O (configuration not stated),"inconclusive: 10 µM [cytotoxic, partial curve]",–
O=C(c1cccc(F)c1)N1CCC[C@@]2(CCN(C(c3ccccc3)c3ccccc3)C2)C1,"inconclusive: 31.6 µM [cytotoxic, single point]",–
CCc1ccccc1NC(=O)CN(c1ccccc1)S(=O)(=O)c1ccsc1C(=O)OC,"inconclusive: 0.005 µM [cytotoxic, full curve, poor fit]",–
COc1cccc(/C=N/n2c(C)c3c(C)nnc(C)c3c2C)c1O,"inconclusive: 15.8 µM [cytotoxic, single point]",–
Cc1ccccc1CNC(=O)c1ccc2nc(SCc3ccc(F)cc3)n(C)c2c1,"inconclusive: 31.6 µM [cytotoxic, single point]",–
CSc1nc(Nc2ccc(F)cc2)cc(-c2ccccc2)n1,active: 12.6 µM,–
CCN1C(=O)c2ccccc2Sc2ccc(NC(=O)N3CCN(c4cc(C)ccc4C)CC3)cc21,"inconclusive: 12.6 µM [cytotoxic, single point]",–
COc1ccc(CSc2nc3ccncc3n2CC(=O)Nc2ccc(C)c(F)c2)cc1,"inconclusive: 15.8 µM [cytotoxic, partial curve]",–
COc1cccc(-c2nnc(SCC(=O)Nc3cc(C)on3)o2)c1,"inconclusive: 12.6 µM [cytotoxic, partial curve]",–
O=S(=O)(Nc1cccc(C(F)(F)F)c1)c1ccc(-c2cnc(C3CC3)o2)cc1,"inconclusive: 15.8 µM [cytotoxic, partial curve, poor fit]",–
CCOC(=O)CSc1nnc2n(-c3ccccc3)c(=O)c3c4c(sc3n12)CC(C(C)(C)C)CC4 (configuration not stated),"inconclusive: 15.8 µM [cytotoxic, single point]",–
CCCCCSc1nc2sc3c(c2c(=O)n1-c1ccc(OC)cc1)CCN(C(C)=O)C3,active: 12.6 µM,–
COc1ccccc1Cn1cc(C(=O)c2ccc(C)cc2)c(=O)c2cc3c(cc21)OCCO3,"inconclusive: 7.94 µM [cytotoxic, single point]",–
CCn1cc2c(n1)-c1c(oc(C(=O)Nc3cccc(C(F)(F)F)c3)c1C)CC2,"inconclusive: 31.6 µM [cytotoxic, single point]",–
COc1ccc(Cn2ccc3nc(C)c(C(=O)NCc4cccc(OC)c4)cc3c2=O)cc1,"inconclusive: 3.98 µM [cytotoxic, full curve, poor fit]",–
CC(C)CO/N=C1/C[C@@H](O)[C@@H](O)[C@@H]2[C@@H]3C(=O)N([C@@H](C)c4ccccc4)C(=O)[C@H]3CC[C@@H]12,–,inactive: 6.04% [at 9.22 µM]
Cc1c(C(=O)N2CCCCCC2)c(S(=O)(=O)N(Cc2ccccc2)C(C)(C)C)c(C)n1C,"inconclusive: 3.16 µM [cytotoxic, full curve, poor fit]",–
